Source: US8722849B2, “Polypeptides” (Novo Nordisk A/S, priority 2011, dated 2014)
Where two headings read alike, the source gives them in different places. Not every detail of the peptide structures is certain; ends, links or a residue may be inferred. For some assays here: The name of at least one read-out is uncertain. Starred links: 1 amine or outer side, 2 acyl side, 3 side chain; linkers in the order of their positions; H or OH if unused. Positions of bridges follow the written chain, without caps; N, C: chain ends. Residues, ends and D or L forms follow the SMILES beside them. Groups on a side chain read outwards from the residue. *: point of attachment. C20 diacid = O=C(O)CCCCCCCCCCCCCCCCCCC(=O)*; γGlu = O=C(O)[C@H](CCC(=O)[*:2])N[*:1]; AEEA = NCCOCCOCC(=O)O

How the values were obtained:
[1] = Assay (III) ThT fibrillation assay for physical stability; format: physicochemical; conditions: ThT fibrillation assay
Procedure, shortened: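 Freshly prepared formulations, pH-adjusted, with 1 μM ThT; four or eight replicates incubated at 37 °C under 960 rpm orbital shaking. Fluorescence (ex 444/em 485 nm) read every 20 min; […]. Peptide concentration measured by RP-HPLC before and after the run.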

[2] = target: T1, human calcitonin receptor (Homo sapiens, UniProt P30988); test: Assay (II)a functional CRE-luciferase assay, human calcitonin receptor; format: cell-based
T1 construct: expressed in transfected cells; host or cells: BHK570
T1 sequence (P30988 25-474): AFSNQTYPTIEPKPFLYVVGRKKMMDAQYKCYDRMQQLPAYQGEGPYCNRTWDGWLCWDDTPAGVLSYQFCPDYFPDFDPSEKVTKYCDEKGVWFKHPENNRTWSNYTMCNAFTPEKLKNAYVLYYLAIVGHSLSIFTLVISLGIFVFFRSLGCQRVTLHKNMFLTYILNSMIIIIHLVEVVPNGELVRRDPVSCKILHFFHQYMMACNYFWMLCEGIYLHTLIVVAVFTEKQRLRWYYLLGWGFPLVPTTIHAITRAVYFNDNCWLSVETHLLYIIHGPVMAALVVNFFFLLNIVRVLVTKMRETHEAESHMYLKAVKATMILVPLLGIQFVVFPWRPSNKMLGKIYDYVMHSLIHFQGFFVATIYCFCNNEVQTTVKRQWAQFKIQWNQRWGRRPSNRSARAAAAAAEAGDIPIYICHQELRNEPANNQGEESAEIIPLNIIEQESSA
Description: (§1) 1. Luciferase Assay Outline
(§2) Activation of calcitonin and amylin (coexpression of calcitonin receptor and receptor activity modifying proteins (RAMP)) receptors lead to increased intracellular concentrations of cAMP. Consequently, transcription is activated by promoters containing multiple copies of the cAMP response element (CRE). It is thus possible to measure amylin activity by the use of a CRE luciferase reporter gene introduced into BHK cells also expressing calcitonin or amylin receptors.
(§3) A BHK570 cell line was stably transfected with the human calcitonin receptor and a CRE-responsive luciferase reporter gene. The cell line was further transfected with RAMP-3, using standard methods. This turns the calcitonin receptor into an amylin 3(a) receptor. Methotrexate, Neomycin, and Hygromycin are selection markers for luciferase, the calcitonin receptor, and RAMP-3, respectively.
(§4) To perform activity assays, BHK calcitonin (a) receptor- or amylin 3(a)-receptor/CRE-luc cells were seeded in white 96 well culture plates at a density of about 20.000 cells/well. […] Further, 50 μl/well of standard or sample in assay buffer were added. After 3 hours incubation at 37° C. and 5% CO2, the assay medium with standard or sample were removed and replaced by 100 μl/well PBS. Further, 100 μl/well LucLite™ was added. The plates were sealed and incubated at room temperature for 30 minutes. Finally, luminescence was measured on a TopCounter (Packard) in SPC (single photon counting) mode.

[3] = target: T2, human amylin receptor (amylin 3(a) receptor: human calcitonin receptor + RAMP-3) (Homo sapiens, UniProt O60896+P30988); test: Assay (II)a functional CRE-luciferase assay, human amylin receptor; format: cell-based
T2 construct: expressed in transfected cells; host or cells: BHK570
T2 sequence (P30988 25-474): T1 sequence (P30988 25-474)
T2 sequence (O60896 24-148 partner): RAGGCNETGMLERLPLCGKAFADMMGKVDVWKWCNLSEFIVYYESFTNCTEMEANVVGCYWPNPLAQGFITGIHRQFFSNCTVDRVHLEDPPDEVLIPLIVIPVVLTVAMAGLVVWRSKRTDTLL
Description: as §1, §2, §3, §4

[4] = Table 7, human calcitonin (CTa) receptor
[5] = Table 11, read-out: CTa receptor human EC50
[6] = Table 2, BHK amylin 3(a)-receptor/CRE-luc cells

SMILES | ThT pH 4.0 lag time [1] [h] | ThT pH 4.0 lag time (h) [1] [h] | ThT pH 4.0 recovery [1] [%] | ThT pH 4.0 recovery (%) [1] [%] | EC50 [2, 4] [nM] | EC50 [2, 5] [nM] | EC50 [3, 6] [nM] | EC50 ([3]; Table 5) [nM] | EC50 ([3]; Table 6, human amylin receptor) [nM] | EC50 ([3]; Table 7, human amylin receptor) [nM] | EC50 ([3]; Table 11) [nM] | EC50 ([3]; Table 3, BHK amylin 3(a)-receptor/CRE-luc cells) [nM] | EC50 ([3]; Table 4) [nM]
CC[C@H](C)[C@H](NC(=O)[C@@H]1CCCN1C(=O)CNC(=O)[C@H](Cc1ccccc1)NC(=O)[C@H](CC(N)=O)NC(=O)[C@H](CO)NC(=O)[C@H](CO)NC(=O)[C@H](CO)NC(=O)[C@H](Cc1c[nH]cn1)NC(=O)[C@H](Cc1c[nH]cn1)NC(=O)[C@H](CC(C)C)NC(=O)[C@H](Cc1ccccc1)NC(=O)[C@H](CCC(=O)O)NC(=O)[C@H](C)NC(=O)[C@H](CC(C)C)NC(=O)[C@H](CCCNC(=N)N)NC(=O)[C@H](CCC(N)=O)NC(=O)[C@@H](NC(=O)[C@H](C)NC(=O)[C@@H]1CSSC[C@H](NC(=O)[C@H](Cc2c[nH]cn2)NC(=O)COCCOCCNC(=O)COCCOCCNC(=O)CC[C@H](NC(=O)CCCCCCCCCCCCCCCCCCC(=O)O)C(=O)O)C(=O)N[C@@H](CC(N)=O)C(=O)N[C@@H]([C@@H](C)O)C(=O)N[C@@H](C)C(=O)N[C@@H]([C@@H](C)O)C(=O)N1)[C@@H](C)O)C(=O)N[C@@H](CC(C)C)C(=O)N1CCC[C@H]1C(=O)N1CCC[C@H]1C(=O)N[C@H](C(=O)N[C@@H](CC(N)=O)C(=O)N[C@H](C(=O)NCC(=O)N[C@@H](CO)C(=O)N[C@@H](Cc1c[nH]cn1)C(=O)N[C@H](C(=O)N[C@@H](Cc1ccc(O)cc1)C(N)=O)[C@@H](C)O)C(C)C)[C@@H](C)O [Example 119, N-alpha-[2-(2-{2-[2-(2-{2-[(S)-4-Carboxy-4-(19-carboxyheptadecanoylamino)butyrylamino]ethoxy}ethoxy)acetylamino]ethoxy}ethoxy)acetyl]-[His1,Glu14,His17,Ser21,His35]-pramlintide] ({C20 diacid-γGlu-AEEA-AEEA}-HCNTATCATQRLAEFLHHSSSNFGPILPPTNVGSHTY-NH2; disulfide 2-7) | >45 | >45 | 86 | 86 | 1.08 | 1.08 | 0.938 | 0.938 | 0.938 | 0.938 | 0.938 | – | –
CC[C@H](C)[C@H](NC(=O)[C@@H]1CCCN1C(=O)CNC(=O)[C@H](Cc1ccccc1)NC(=O)[C@H](CC(N)=O)NC(=O)[C@H](CO)NC(=O)[C@H](CO)NC(=O)[C@H](CO)NC(=O)[C@H](Cc1c[nH]cn1)NC(=O)[C@H](Cc1c[nH]cn1)NC(=O)[C@H](CC(C)C)NC(=O)[C@H](Cc1ccccc1)NC(=O)[C@H](CCC(=O)O)NC(=O)[C@H](C)NC(=O)[C@H](CC(C)C)NC(=O)[C@H](CCCNC(=N)N)NC(=O)[C@H](CCC(N)=O)NC(=O)[C@@H](NC(=O)[C@H](C)NC(=O)[C@@H]1CSSC[C@H](NC(=O)[C@H](CCCCN)NC(=O)COCCOCCNC(=O)COCCOCCNC(=O)CC[C@H](NC(=O)CCCCCCCCCCCCCCCCCCC(=O)O)C(=O)O)C(=O)N[C@@H](CC(N)=O)C(=O)N[C@@H]([C@@H](C)O)C(=O)N[C@@H](C)C(=O)N[C@@H]([C@@H](C)O)C(=O)N1)[C@@H](C)O)C(=O)N[C@@H](CC(C)C)C(=O)N1CCC[C@H]1C(=O)N1CCC[C@H]1C(=O)N[C@H](C(=O)N[C@@H](CC(N)=O)C(=O)N[C@H](C(=O)NCC(=O)N[C@@H](CO)C(=O)N[C@@H](Cc1c[nH]cn1)C(=O)N[C@H](C(=O)N[C@@H](Cc1ccc(O)cc1)C(N)=O)[C@@H](C)O)C(C)C)[C@@H](C)O [Example 118, N-alpha-[2-(2-{2-[2-(2-{2-[(S)-4-Carboxy-4-(19-carboxyheptadecanoylamino)butyrylamino]ethoxy}ethoxy)acetylamino]ethoxy}ethoxy)acetyl]-[Glu14,His17,Ser21,His35]-pramlintide] ({C20 diacid-γGlu-AEEA-AEEA}-KCNTATCATQRLAEFLHHSSSNFGPILPPTNVGSHTY-NH2; disulfide 2-7) | >45 | >45 | 81 | 81 | 0.277 | 0.277 | 0.434 | 0.434 | 0.434 | 0.434 | 0.434 | – | –
CC[C@H](C)[C@H](NC(=O)[C@@H]1CCCN1C(=O)CNC(=O)[C@H](Cc1ccccc1)NC(=O)[C@H](CC(N)=O)NC(=O)[C@H](CCCCNC(=O)COCCOCCNC(=O)COCCOCCNC(=O)CC[C@H](NC(=O)CCCCCCCCCCCCCCCCCCC(=O)O)C(=O)O)NC(=O)[C@H](CO)NC(=O)[C@H](CO)NC(=O)[C@H](Cc1c[nH]cn1)NC(=O)[C@@H](NC(=O)[C@H](CC(C)C)NC(=O)[C@H](Cc1ccccc1)NC(=O)[C@H](CCC(=O)O)NC(=O)[C@H](C)NC(=O)[C@H](CC(C)C)NC(=O)[C@H](CCCNC(=N)N)NC(=O)[C@H](CCC(N)=O)NC(=O)[C@@H](NC(=O)[C@H](C)NC(=O)[C@@H]1CSSC[C@H](NC(=O)[C@@H](N)CCCCN)C(=O)N[C@@H](CC(N)=O)C(=O)N[C@@H]([C@@H](C)O)C(=O)N[C@@H](C)C(=O)N[C@@H]([C@@H](C)O)C(=O)N1)[C@@H](C)O)C(C)C)C(=O)N[C@@H](CC(C)C)C(=O)N1CCC[C@H]1C(=O)N[C@@H](CO)C(=O)N[C@H](C(=O)N[C@@H](CC(N)=O)C(=O)N[C@H](C(=O)NCC(=O)N[C@@H](CO)C(=O)N[C@@H](Cc1c[nH]cn1)C(=O)N[C@H](C(=O)N[C@@H](Cc1ccc(O)cc1)C(N)=O)[C@@H](C)O)C(C)C)[C@@H](C)O [Example 127, N-epsilon21-[2-(2-{2-[2-(2-{2-[(S)-4-Carboxy-4-(19-carboxyheptadecanoylamino)butyrylamino]ethoxy}ethoxy)acetylamino]ethoxy}ethoxy)acetyl]-[Glu14,Lys21,Ser29,His35]-pramlintide] (H-KCNTATCATQRLAEFLVHSSK([AEEA-AEEA-γGlu-C20 diacid])NFGPILPSTNVGSHTY-NH2; disulfide 2-7) | – | 6 | – | 15 | 0.48 | 0.48 | 1.09 | – | 1.09 | 1.09 | 1.09 | 1.09 | 1.09
